# Assay results taken from the supplement of paper PMC3334620.
# The full ranking holds about 33,000 sequences; the median of “E-score (-0.5 to 0.5)” is about -0.041, and the highest 2% start at about 0.37. Some of the results follow.
# Molecular target: T1, Ecm22 (UniProt Q05958)
# T1 sequence: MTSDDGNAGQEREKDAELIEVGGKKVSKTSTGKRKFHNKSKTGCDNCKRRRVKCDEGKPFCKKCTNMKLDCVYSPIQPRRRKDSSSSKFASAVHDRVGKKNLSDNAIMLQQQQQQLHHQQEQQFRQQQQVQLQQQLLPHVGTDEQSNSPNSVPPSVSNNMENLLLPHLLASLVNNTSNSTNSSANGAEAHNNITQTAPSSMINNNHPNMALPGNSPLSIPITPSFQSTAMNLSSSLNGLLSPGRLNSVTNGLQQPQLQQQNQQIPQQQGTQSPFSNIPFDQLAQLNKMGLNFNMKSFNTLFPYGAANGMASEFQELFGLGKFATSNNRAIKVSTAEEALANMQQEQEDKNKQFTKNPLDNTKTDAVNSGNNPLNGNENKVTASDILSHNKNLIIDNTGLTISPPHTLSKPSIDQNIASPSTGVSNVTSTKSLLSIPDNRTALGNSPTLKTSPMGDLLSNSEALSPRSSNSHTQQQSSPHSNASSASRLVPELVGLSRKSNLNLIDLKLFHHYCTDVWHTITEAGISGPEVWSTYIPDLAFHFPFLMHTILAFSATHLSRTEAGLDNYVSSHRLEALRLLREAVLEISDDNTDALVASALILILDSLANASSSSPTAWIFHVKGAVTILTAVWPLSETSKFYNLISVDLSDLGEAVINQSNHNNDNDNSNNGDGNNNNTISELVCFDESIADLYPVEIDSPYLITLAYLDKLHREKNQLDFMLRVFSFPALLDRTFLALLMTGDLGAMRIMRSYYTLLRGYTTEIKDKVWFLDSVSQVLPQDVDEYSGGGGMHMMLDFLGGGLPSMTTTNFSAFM
# Assay: PBM E-score (8-mer binding enrichment) (E-score (-0.5 to 0.5)); higher = stronger / more preferred TF binding; most listed sequences are background and not binding sites
# Conditions: protein concentration: 200 nM; construct: GST-full length
# Procedure, shortened: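 Full-length yeast transcription factors or their DNA-binding domains, GST-tagged and expressed with PURExpress, were applied at about 100-200 nM to universal all-10-mer Agilent arrays. These arrays had been made double-stranded by primer extension on fresh or once-stripped slides. Detection used fluorescent anti-GST, normalisation used masliner, and E-scores for ungapped eight-base words pooled with reverse complements came from the Universal PBM Analysis Suite.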
row,Sequence,PBM E-score
1,CGACATGA,0.131
2,GGACCAAC,-0.195
3,AAATGGGC,-0.207
4,CGAGGTAC,0.347
5,TAGTGATA,-0.0351
6,CTACTTCC,0.0408
7,ATATTCTA,0.0553
8,GACATATA,0.186
9,TCAAACGA,0.452
10,AGGCCCCT,-0.278
11,CATTTTAC,0.222
12,ATTCATTC,0.129
13,CACGGACA,-0.169
14,TACTGCGA,0.136
15,GAGACTTA,-0.124
16,AGACATCC,-0.0743
17,AGCCATAA,-0.0779
18,AAGCGTAA,0.0353
19,CTCCATGA,-0.107
20,CTTATGCA,-0.0389
21,GTAAGTAC,0.193
22,AGGTTCTC,0.0993
23,CTTCGGCA,0.138
24,AGATTACC,-0.016
25,ACCAAATC,-0.151

row,Sequence,PBM E-score
1,CCACCCAC,-0.181
2,AGTGAGGC,-0.181
3,GCCTGCTA,-0.251
4,AGCACGAA,-0.0128
5,TAATTGCA,0.0349
6,ATCTGGCC,-0.211
7,GTCTTGTA,-0.00678
8,ATACCGCC,-0.0633
9,GTCTAGAC,-0.0216
10,CCTCCCAC,-0.119
11,TAATGGTA,0.0455
12,TAGTAACA,-0.0453
13,AAATTGTA,0.128
14,CCCCAAGA,-0.302
15,ACGAGTTA,0.422
16,GCAGCTTA,-0.157
17,CGCTATTC,0.0841
18,ATTGTATG,-0.0682
19,AATGCCTC,0.118
20,CAGCCGTC,-0.109
21,GATGACGC,0.117
22,AGTATTTG,-0.0191
23,AGAGCAAC,0.117
24,CGCATGGC,-0.0244
25,GAAAGACA,-0.0973

row,Sequence,PBM E-score
1,CGGCAATC,-0.00861
2,ACATACCA,-0.146
3,CTCATTCC,-0.315
4,GGTCGGGA,0.18
5,ATTGCGGG,-0.123
6,AACGTTAT,0.0997
7,ACGTAACT,-0.0711
8,CCGGATCG,0.1
9,AGCGCTAT,-0.048
10,AAGACCGA,0.214
11,CGTTCTGA,0.0774
12,GCAGTTCA,-0.108
13,CAGGTTTC,-0.122
14,AGAACTCG,0.0859
15,CCGGGTTA,0.0418
16,AGTCACGA,-0.0157
17,CGTTACTA,0.117
18,CTCTCACA,-0.318
19,CCGGAGGC,-0.175
20,GTGTGCCA,-0.0883
21,AAGCGCTC,0.00471
22,CTGTGAGA,-0.33
23,ATTCCTAC,-0.131
24,ATTATCCG,0.212
25,AAGTCAAT,-0.121

row,Sequence,PBM E-score
1,CAAAGAAA,0.0868
2,TTCCGGAA,-0.0556
3,GACTGACA,-0.208
4,GACTCTCC,0.0568
5,AAATCCGT,0.00949
6,AAGCTACT,0.084
7,ATTCGGTG,0.0584
8,AGAGTCCA,-0.184
9,CTACCGGC,-0.318
10,ACCTTGCG,0.0236
11,CGTGCTCC,-0.0174
12,GCTCCATA,-0.0352
13,GGGAGTCA,-0.28
14,ATTATCGG,0.163
15,ACCCCGGG,-0.0989
16,GACAGAAC,0.0871
17,ATAACCAT,0.0281
18,CTGCAAGA,-0.0557
19,ACCCCATG,-0.251
20,ACAGTTTG,-0.147
21,AAGCTAAA,-0.0783
22,CAGTTGCG,-0.0105
23,AGCGGGCA,-0.0923
24,CGGTCACC,0.0101
25,ATTTTGAG,-0.139

row,Sequence,PBM E-score
1,ACTGTACG,0.42
2,CAAATGGA,0.0128
3,CAAGCCAG,-0.21
4,AGCCTATC,-0.152
5,CGAGCCAG,0.232
6,CCGTACAA,0.4
7,ATAACGTG,-0.0623
8,ACACTGGT,-0.0766
9,AATCCACC,-0.063
10,CACTAGCC,-0.131
11,ATGTGCAA,0.00963
12,ATATGAAG,-0.151
13,CACAAAAA,-0.0358
14,ATGTCGCC,0.0464
15,AAAGTTAG,-0.0323
16,GCTGGTTA,-0.132
17,CATACCAG,-0.0569
18,TAAGTAAA,0.0259
19,AGGAAATG,-0.11
20,AACAGCTC,-0.0746
21,GCGCCCCA,-0.158
22,AACCGCCT,0.029
23,AGCAGGTG,-0.226
24,ACGATTAT,0.306
25,ACGACCTG,0.32

row,Sequence,PBM E-score
1,CCCACACA,-0.218
2,TAAGCCGA,0.15
3,AAGTGAGC,-0.109
4,GGGGATGA,-0.225
5,ACTTCTGA,-0.348
6,CAAACAAC,0.0325
7,ATAAACCC,-0.0127
8,GTAAGCTA,-0.0496
9,ACTACCTC,-0.147
10,GACAACGC,-0.0105
11,AAGAATCG,0.185
12,CCTGATGA,-0.0201
13,ACTTCGTA,0.434
14,AGCGTCAG,-0.246
15,ACTTACCC,-0.0323
16,CTCTTTGA,-0.189
17,ACCTCGCG,0.26
18,ATCAATTG,0.112
19,GCCACCCA,-0.285
20,ATGAAGGA,-0.0112
21,CCGTTGCA,0.0122
22,GTTATGAA,0.0485
23,CAATTGAA,-0.0626
24,ACGTGCAG,-0.0501
25,CGCTGAAG,-0.00934

row,Sequence,PBM E-score
1,ACCTACCG,-6e-05
2,AACTCCTT,-0.0269
3,GAGTCATC,-0.104
4,CTGGATGC,-0.159
5,GCGAAAGA,0.1
6,AGCGAAAT,0.16
7,GAATACAA,0.118
8,GACAAAAA,0.0341
9,CGTTGCGC,0.347
10,ATTGGCTC,-0.013
11,CGAAGGTC,0.259
12,ATCGGGGG,-0.184
13,ACGCCCTC,0.0597
14,GGGGAGTA,-0.161
15,ATACTTGG,-0.13
16,ATCTATGG,-0.0718
17,AATGGGTG,-0.06
18,ACGAGACA,0.315
19,AAAGGCCG,0.0814
20,GTGTCAAA,-0.0701
21,ATGAATTA,0.0701
22,CCTACGTC,-0.0362
